These results are taken from paper PMC4336329 (PLoS ONE, 2015).

About 2,200 (0.71%) of roughly 310,000 compounds showed an effect of 50% or more. The effect is printed as a negative number. The list shows a part of the results.

The target of this test is human ether-à-go-go-related gene (hERG) potassium channel (human, UniProt Q12809). Description: primary screen, population patch clamp on CHO cells stably expressing hERG.
Sequence of human ether-à-go-go-related gene (hERG) potassium channel (Q12809 whole entry, looked up): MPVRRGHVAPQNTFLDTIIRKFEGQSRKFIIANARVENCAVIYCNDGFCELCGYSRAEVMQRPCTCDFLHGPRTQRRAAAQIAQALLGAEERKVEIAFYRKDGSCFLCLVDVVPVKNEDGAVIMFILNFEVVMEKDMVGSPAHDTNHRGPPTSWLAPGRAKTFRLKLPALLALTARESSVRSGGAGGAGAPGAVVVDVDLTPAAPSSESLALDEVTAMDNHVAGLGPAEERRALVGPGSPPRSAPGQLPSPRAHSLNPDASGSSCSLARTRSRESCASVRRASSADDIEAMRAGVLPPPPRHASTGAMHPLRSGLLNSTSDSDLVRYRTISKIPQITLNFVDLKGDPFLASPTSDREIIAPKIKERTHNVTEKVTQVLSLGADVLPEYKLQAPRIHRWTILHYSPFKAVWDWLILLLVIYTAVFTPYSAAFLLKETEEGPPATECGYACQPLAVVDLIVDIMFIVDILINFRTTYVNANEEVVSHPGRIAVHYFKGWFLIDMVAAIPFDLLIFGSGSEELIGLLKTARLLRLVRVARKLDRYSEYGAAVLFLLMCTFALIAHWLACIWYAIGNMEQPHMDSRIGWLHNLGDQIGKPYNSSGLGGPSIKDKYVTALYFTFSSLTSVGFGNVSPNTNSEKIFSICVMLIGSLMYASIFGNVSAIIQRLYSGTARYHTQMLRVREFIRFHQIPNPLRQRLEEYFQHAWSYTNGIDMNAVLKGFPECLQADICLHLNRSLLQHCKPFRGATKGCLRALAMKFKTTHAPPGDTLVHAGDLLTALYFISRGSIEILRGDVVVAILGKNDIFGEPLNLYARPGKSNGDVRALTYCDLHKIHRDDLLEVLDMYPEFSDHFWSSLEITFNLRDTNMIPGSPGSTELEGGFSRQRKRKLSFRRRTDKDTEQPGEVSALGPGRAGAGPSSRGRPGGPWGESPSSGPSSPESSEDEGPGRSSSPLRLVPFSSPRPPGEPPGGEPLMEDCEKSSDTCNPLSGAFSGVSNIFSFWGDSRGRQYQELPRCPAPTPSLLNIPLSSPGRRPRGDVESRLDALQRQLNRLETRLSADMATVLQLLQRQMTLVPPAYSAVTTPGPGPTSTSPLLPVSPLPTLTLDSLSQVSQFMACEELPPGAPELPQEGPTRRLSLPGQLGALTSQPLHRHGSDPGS
Turning to `O=C(Nc1nncs1)c1ccccc1NS(=O)(=O)c1cccs1`, the “hERG current change (%, negative = inhibition) at 1uM” value was 17.3%. Under `Oc1ccc(C23CCCC2C2(CCCC2)c2ccc(O)cc2O3)c(O)c1` (stereo not shown) stands 0.346%; under `COc1ccc(N(CC(=O)N2CCC(C)CC2)S(=O)(=O)c2c(C)nn(C)c2C)cc1`, -3.44%; under `Cc1nc(SCC(=O)Nc2cc(Cl)ccc2[N+](=O)[O-])nc(C)c1C`, 13.8%.

Regarding `CC(=O)O[C@@H]1[C@@]2(C)O[C@H]2CC[C@]23O[C@H]2[C@H](OC3=O)C2=C(C)C(=O)O[C@@]21O`, the “hERG current change (%, negative = inhibition) at 1uM” value worked out at 11.3%. In the case of `Cc1cc(C)n(CCN(C)C(=O)CCc2nnc(-c3ccc4c(c3)OCO4)o2)n1`, the “hERG current change (%, negative = inhibition) at 1uM” value is listed as -1.26%. With `Cc1cc(C)c(C)c(S(=O)(=O)NCCCN2CCCC2=O)c1C` the figure was 2.35%; with `COc1ccc(Cc2noc(CN3CCN(Cc4cccc(Cl)c4)CC3)n2)cc1OC`, 6.24%; with `NC(=O)c1nsc(C(=O)N(CC(=O)NC2CCCC2)c2cccc(C(F)(F)F)c2)c1N`, -4.62%. Under `CCOc1cc(-c2nc(-c3ccccc3OC)no2)cc(OCC)c1OCC` stands 7.99%. Turning to `O=C(O)Cn1cc(C(=O)c2ccccc2)c2ccccc21`, the “hERG current change (%, negative = inhibition) at 1uM” value is 4.8%.

`Cc1cc(C)c(C#N)c(SCC(O)CS(=O)(=O)Cc2ccccc2)n1` (stereo not shown): the “hERG current change (%, negative = inhibition) at 1uM” value was 11.8%. Take `C=CCNC(=O)COC(=O)c1oc2ccccc2c1CSC1CCCCC1`: the “hERG current change (%, negative = inhibition) at 1uM” value was -0.3%.

In the case of `COCCOC(=O)c1c(C)n(C)c2ccc(OC(=O)c3ccccc3OC)cc12`, the “hERG current change (%, negative = inhibition) at 1uM” value came out at 20.2%. Take `O=c1oc(CCO)cc2ccc(-c3ccc4[nH]ccc4c3)cc12`: the “hERG current change (%, negative = inhibition) at 1uM” value is 15.1%. With `COc1cc(NC2c3ccccc3C(=O)N2Cc2ccc3c(c2)OCO3)cc(OC)c1OC` (stereo not shown) the figure was 11.3%. In the case of `COc1ccc(S(=O)(=O)Nc2noc3ccccc23)cc1`, the “hERG current change (%, negative = inhibition) at 1uM” value is listed as 15.1%. Under `O=C(CSc1ccc2nnc(-c3cccnc3)n2n1)N1CCOCC1` stands -0.455%; under `O/N=C/C1=C(Cl)c2ccccc2CC1`, 2.45%. As for `CC(=O)Nc1ccc(S(=O)(=O)NCCC(=O)OCC(=O)c2ccccc2)cc1`, the “hERG current change (%, negative = inhibition) at 1uM” value is 6.41%. As for `O=C(NCCCn1ccnc1)c1ccc(Cl)s1`, the “hERG current change (%, negative = inhibition) at 1uM” value worked out at 11.2%. With `O=C(CN(C(=O)CNC(=O)c1cccs1)c1ccc(F)cc1)NC1CCCCC1`, the “hERG current change (%, negative = inhibition) at 1uM” value is 8.13%.

Regarding `N/C(=N\S(=O)(=O)c1cc(C(F)(F)F)cc(C(F)(F)F)c1)c1ccc(Cl)cc1`, the “hERG current change (%, negative = inhibition) at 1uM” value came to 7.79%. With `COc1cccc(/C=N/Nc2ncnc3c2[nH]c2ccc(C)cc23)c1OC` the figure was 14.1%; with `NNC(=O)c1csc(Cc2c(Cl)sc3ccc(Cl)cc23)n1`, 14.8%. On to `CC(=O)c1cnc(SCc2ccc(Cl)cc2)nc1C`, for which the “hERG current change (%, negative = inhibition) at 1uM” value was found to be 15.1%. For `CCOCCCNC(=O)N[C@@H](C)C(=O)OC`, the “hERG current change (%, negative = inhibition) at 1uM” value was 3.27%. Turning to `CCN(CC)CCNc1ncnc2c1sc1nc(N3CCCC3)c3c(c12)CC(C)(C)OC3`, the “hERG current change (%, negative = inhibition) at 1uM” value was -3.38%. Take `Cc1ccc2[nH]cc(C(=O)CN3CCN(c4ccccc4F)CC3)c2c1`: the “hERG current change (%, negative = inhibition) at 1uM” value is -1.44%. On to `Cc1nn(Cc2ccccc2)c(C)c1CNC(=O)c1ccc(F)c(S(=O)(=O)N2CCOCC2)c1`, for which the “hERG current change (%, negative = inhibition) at 1uM” value is -14.5%. In the case of `N#CCCN1CCN(S(=O)(=O)c2ccc(S(=O)(=O)NC3CCCC3)cc2)CC1`, the “hERG current change (%, negative = inhibition) at 1uM” value is -0.309%.

For the molecule `CCc1nonc1NC(=O)c1oc2cc(C)c(C)cc2c1C`, the “hERG current change (%, negative = inhibition) at 1uM” value is given as 16.1%. With `Cc1ccc2nc3c(cc(C(=O)NC4CCCC4)c(=N)n3CCCn3ccnc3)c(=O)n2c1` the figure was -2.46%. For `O=C(CN1C(=O)c2ccccc2S1(=O)=O)NCc1ccccc1Cl`, the “hERG current change (%, negative = inhibition) at 1uM” value is listed as 8.29%.

In the case of `COc1ccc(-c2cc(COc3ccccc3)on2)cc1`, the “hERG current change (%, negative = inhibition) at 1uM” value is 27.2%. Regarding `O=C(c1ccccc1[N+](=O)[O-])N1CCC(Cc2ccccc2)CC1`, the “hERG current change (%, negative = inhibition) at 1uM” value was 7.67%. With `O=C(OCC(=O)N1CCCC1=O)c1cccc(S(=O)(=O)N2CCOCC2)c1`, the “hERG current change (%, negative = inhibition) at 1uM” value is reported as 11.7%. For `CC(C)Cn1c([N+](=O)[O-])nc2c1c(=O)[nH]c(=O)n2C`, the “hERG current change (%, negative = inhibition) at 1uM” value is on record as 13.5%.

For `Cc1occc1-c1nnc(SCC(=O)NC(=O)NC(C)C)n1N`, the “hERG current change (%, negative = inhibition) at 1uM” value was determined as 11.6%. Regarding `CCCOc1ccc(N2C(=O)CC(N(Cc3ccccc3)N=O)C2=O)cc1` (stereo not shown), the “hERG current change (%, negative = inhibition) at 1uM” value is recorded as 8.66%. Regarding `CC1(C)C2([N+](=O)[O-])CN(CCO)CC1([N+](=O)[O-])CN(CCO)C2`, the “hERG current change (%, negative = inhibition) at 1uM” value is 5.48%. As for `C=CCNC(=O)c1onc(CSc2cccc(Cl)c2)c1C(=O)O`, the “hERG current change (%, negative = inhibition) at 1uM” value is 12%.

With `CCN(CC(=O)Nc1ccc(NC(C)=O)cc1)C(=O)/C=C/c1cn(-c2ccccc2)nc1-c1ccc(F)cc1`, the “hERG current change (%, negative = inhibition) at 1uM” value was 7.35%. `CCC(CC)c1nnc(NS(=O)(=O)Cc2ccccc2)s1`: the “hERG current change (%, negative = inhibition) at 1uM” value came out at 11%. Take `CCCNS(=O)(=O)c1ccc(CCC(=O)NCc2ccco2)cc1`: the “hERG current change (%, negative = inhibition) at 1uM” value is given as 5.52%. `COCc1nnc(NC(=O)c2ccc(OC)cc2OC)s1`: the “hERG current change (%, negative = inhibition) at 1uM” value is listed as 11.3%. Take `CCCCNC(=O)Nc1nnc(-c2ccc(Cl)cc2)o1`: the “hERG current change (%, negative = inhibition) at 1uM” value is listed as 11.7%. As for `Cl.O=C(c1ccc(Cl)cc1)N1CCN(CCc2ccccn2)CC1`, the “hERG current change (%, negative = inhibition) at 1uM” value is recorded as -53.7%. Take `CC(=O)Nc1ccc(C(=O)NC2CCCC2)cc1`: the “hERG current change (%, negative = inhibition) at 1uM” value was found to be 6.35%. `Cn1cc(SCC(=O)Nc2nccs2)c2ccccc21`: the “hERG current change (%, negative = inhibition) at 1uM” value is 11.2%. Consider `CCCCn1nc2cc(C(=O)NCCc3ccc(C)cc3)ccc2c1OCC`, for which the “hERG current change (%, negative = inhibition) at 1uM” value came out at 11.8%. Under `Cc1cc(NC(=O)CSc2nccn2-c2ccc(F)cc2)no1` stands -5.83%.

Regarding `CC1CC(=O)N(CC(=O)NCc2ccc(F)cc2)c2ccccc2S1(=O)=O` (stereo not shown), the “hERG current change (%, negative = inhibition) at 1uM” value is listed as 7%. Under `CSc1ccccc1C(=O)NCc1ccccc1` stands 12.7%; under `CCC(C(=O)Nc1ccccc1N1CCCC1)c1ccccc1` (stereo not shown), 6.49%; under `CN1c2ccccc2Oc2nnc(Cl)cc21`, 4.66%. Turning to `COc1ccc(C(=O)NNC(=O)C(NC(=O)c2cc(OC)cc(OC)c2)C(C)C)cc1` (stereo not shown), the “hERG current change (%, negative = inhibition) at 1uM” value is listed as 8.39%. Turning to `COc1ccccc1CN1CC(C(=O)NC2(c3ccccc3)CC2)CCC1=O` (stereo not shown), the “hERG current change (%, negative = inhibition) at 1uM” value stood at 6.13%. Regarding `Cc1ccc(OCC(=O)NCCNC(=O)c2ccco2)cc1C`, the “hERG current change (%, negative = inhibition) at 1uM” value came out at 9.46%.

Consider `CCOC(=O)Nc1nnc(Cc2ccc(Cl)c(Cl)c2)s1`, for which the “hERG current change (%, negative = inhibition) at 1uM” value was 11.5%. With `CC(=O)Nc1ccc(S(=O)(=O)Nc2cccn(Cc3ccc(C)cc3)c2=O)cc1` the figure was 8.89%; with `COc1cc2oc(=O)c3c(c2cc1OCC(=O)c1c(C)n(C)c2ccccc12)CCCC3`, 1.11%; with `CS(=O)(=O)N(CC(=O)Nc1ccccc1Sc1ccccc1)c1ccc(F)cc1`, 4.54%. As for `Cc1ccc(-c2nc3sc4c(c3c(=O)n2N)CC(C)(C)OC4)cc1`, the “hERG current change (%, negative = inhibition) at 1uM” value came to 17%. Under `Cc1oc(-c2cccc(F)c2)nc1CN1CCCN(C(=O)c2ccco2)CC1` stands -10.4%. For `O=C(Nc1ccccc1)Nc1ccccc1NS(=O)(=O)c1cccs1`, the “hERG current change (%, negative = inhibition) at 1uM” value worked out at 10.8%.

With `COc1ccc(NC(=S)NC23CN4CN(CN(C4)C2)C3)cc1`, the “hERG current change (%, negative = inhibition) at 1uM” value stood at 15.7%. For the molecule `COc1ccc(C(=O)SC2=NCCS2)cc1`, the “hERG current change (%, negative = inhibition) at 1uM” value is listed as 7.04%.

As for `CCOCCCNC(=O)C1(O)c2cc(Br)ccc2NC(=O)N1c1cccc(OC)c1` (stereo not shown), the “hERG current change (%, negative = inhibition) at 1uM” value turned out to be 12.7%.

For `Cc1cc(C)nc(SC/C=C/c2ccccc2)n1.Cl`, the “hERG current change (%, negative = inhibition) at 1uM” value was found to be 18.5%.

As for `COc1ccc(OC(C)C(=O)N2CC(C)OC(C)C2)cc1` (stereo not shown), the “hERG current change (%, negative = inhibition) at 1uM” value is recorded as 2.55%. Take `Cc1ccc(C(=O)NC(=S)Nc2ccc3[nH]c(=O)[nH]c3c2)cc1`: the “hERG current change (%, negative = inhibition) at 1uM” value stood at 1.16%. On to `Cc1nc2ccc(NC(=S)NCCCO)cc2nc1C`, for which the “hERG current change (%, negative = inhibition) at 1uM” value was found to be 13.6%.

Consider `C/C(=N\NC(=O)c1c(Cl)c(C)nn1C)c1ccc(NC(=O)COc2ccc(Cl)cc2C)cc1`, for which the “hERG current change (%, negative = inhibition) at 1uM” value was 10%. In the case of `COc1ccc2[nH]c(=O)c(CN(C(=O)c3ccccn3)C3CCCCC3)cc2c1`, the “hERG current change (%, negative = inhibition) at 1uM” value is on record as 10.1%. `Cc1ccc(OCc2n[nH]c(=S)n2C2CCCCC2)cc1`: the “hERG current change (%, negative = inhibition) at 1uM” value is reported as 16.8%.

Regarding `Cn1cc(C(=O)c2cccc(Cl)c2Cl)cc1C(=O)O`, the “hERG current change (%, negative = inhibition) at 1uM” value is reported as 14.4%. Take `CN(C)CCCn1c2c(c(SCC(=O)Nc3ccc4c(c3)OCO4)nc1=O)CCC2`: the “hERG current change (%, negative = inhibition) at 1uM” value is 7.55%. Under `COc1ccc(Cn2nnnc2C(C(C)C)N2CCN(c3ccccc3OC)CC2)cc1` (stereo not shown) stands -15.5%. Consider `CC(=O)O[C@@H]1/C=C/[C@](C)(O)C[C@@H](C)C/C=C/[C@H]2[C@H](O)C(C)=C(C)[C@H]3[C@H](Cc4ccccc4)NC(=O)[C@@]123`, for which the “hERG current change (%, negative = inhibition) at 1uM” value was 9.1%. Regarding `O=C(COc1ccc2ccccc2c1)Nc1ccc(S(=O)(=O)N2CCCCCC2)cc1`, the “hERG current change (%, negative = inhibition) at 1uM” value is 9.96%. With `C[C@]12C(=O)N(c3ccc(Cl)cc3)C(=O)N1[C@H]1c3ccccc3OC[C@@H]1[C@H]2c1ccccc1`, the “hERG current change (%, negative = inhibition) at 1uM” value is 14%. Turning to `CCN(CC(=O)NCc1ccc(F)cc1)c1ccc(S(C)(=O)=O)cc1[N+](=O)[O-]`, the “hERG current change (%, negative = inhibition) at 1uM” value is listed as -5.44%. Consider `Cc1cccc(N=C2NN=C(c3ccccc3F)CS2)c1C`, for which the “hERG current change (%, negative = inhibition) at 1uM” value is on record as 13.7%. On to `Cc1cc(NC(=O)c2ccc(Cl)cc2)n(CCC#N)n1`, for which the “hERG current change (%, negative = inhibition) at 1uM” value is recorded as 16.4%. Turning to `CC(C)(C)OC(=O)N1CCC[C@H]1C(=O)NCC1CCC(C(=O)O)CC1` (stereo partly shown), the “hERG current change (%, negative = inhibition) at 1uM” value was -2.6%. Regarding `Cc1cc(C)n2nc(C(=O)N/N=C/c3ccccc3Cl)nc2n1`, the “hERG current change (%, negative = inhibition) at 1uM” value was found to be 9.68%.

On to `Cc1nn(Cc2ccc(C(=O)NN)o2)c(C)c1Cl`, for which the “hERG current change (%, negative = inhibition) at 1uM” value was 12.6%.
